# The other results are listed elsewhere or left out. At the low end of the ranking the order means little.
# Biological target: SIX1-Q177R homeodomain (UniProt Q15475)
# Assay: universal protein binding microarray
# Details: Universal all-10-mer PBM (8x60K, AMADID 030236), 300 nM GST-tagged protein, Alexa Fluor 488 anti-GST; buffer, salt, pH and temperature not stated; high values mean tight binding; most listed sequences are background and not binding sites; double strand, one strand shown
row,Sequence,binding signal
1,CCGTTCAA,-0.0309 E-score
2,GATTGTGC,-0.195 E-score
3,GACCCTCC,0.0835 E-score
4,CACGTACC,0.115 E-score
5,AGAACCGC,-0.0673 E-score
6,CAACCACG,0.155 E-score
7,CCTATGTA,0.0459 E-score
8,ACCAACGC,0.246 E-score
9,AATACCCA,0.0414 E-score
10,ACCCCGGG,0.302 E-score
11,AACCAAAC,-0.216 E-score
12,GTTAGGAA,0.0909 E-score
13,GAAAGGCC,-0.0642 E-score
14,ATCATATC,0.0056 E-score
15,TCATTGGA,-0.0548 E-score
16,AGATATAA,-0.0438 E-score
17,CTGGCCGC,-0.201 E-score
18,ATTCGCCA,-0.0783 E-score
19,CACCATCA,0.231 E-score
20,CACACACC,0.389 E-score
21,GAATGGAA,-0.0114 E-score
22,TCGTGCAA,-0.0122 E-score
23,GGATTGAC,-0.0983 E-score
24,CTAACCGC,-0.0352 E-score
25,CCCTCGAA,0.156 E-score

row,Sequence,binding signal
1,AAATACTC,-0.0157 E-score
2,AACCCTCG,0.0629 E-score
3,CTAAAGTA,-0.0598 E-score
4,AAGCGGTA,-0.00553 E-score
5,GACGTGAA,-0.215 E-score
6,GGTCAGTA,0.0563 E-score
7,CACGCTCG,0.242 E-score
8,ACCCGCAA,0.0678 E-score
9,ACACCCCA,0.47 E-score
10,AATACCAT,-0.0412 E-score
11,CTTAAAAC,-0.198 E-score
12,CGCAATAG,0.00494 E-score
13,AATCCGGC,0.0215 E-score
14,AGGAAGGA,-0.0285 E-score
15,CGCTTATA,-0.0753 E-score
16,CAGGCACA,-0.0072 E-score
17,ACGGGCAT,-0.0162 E-score
18,CCAAATAC,-0.0405 E-score
19,AAAACTTG,-0.156 E-score
20,GGGACGCA,-0.186 E-score
21,GGGATAAA,0.0743 E-score
22,AAAAAATG,-0.26 E-score
23,GCTCTATA,-0.218 E-score
24,ACCGTCTA,0.0486 E-score
25,ACCAAATA,0.105 E-score

row,Sequence,binding signal
1,ACGCAAGC,-0.136 E-score
2,GGGTGGCA,0.138 E-score
3,CCAAAGCG,0.0445 E-score
4,CGGAAATA,-0.195 E-score
5,CATTAGGC,-0.0724 E-score
6,ATAGGTGC,0.193 E-score
7,AGGCGCAT,0.136 E-score
8,CACTGCTC,0.104 E-score
9,TGGCGCCA,-0.281 E-score
10,ATTTACGG,-0.149 E-score
11,CGATCGTC,-0.0471 E-score
12,CTAGATCA,9e-05 E-score
13,AAAGCGCA,0.0173 E-score
14,AAAGCTGA,-0.0855 E-score
15,AGGATAAA,-0.0507 E-score
16,AGTTTAAC,0.143 E-score
17,GTCAGTCA,-0.105 E-score
18,GGGGGTCA,0.313 E-score
19,GCCAGGGC,-0.0808 E-score
20,CCAGCGCA,-0.0282 E-score
21,CGGGGTTC,0.201 E-score
22,GCACCCAC,0.194 E-score
23,CCATCCGC,0.0369 E-score
24,CAGTTATG,-0.107 E-score
25,CCGTGTCA,0.465 E-score

row,Sequence,binding signal
1,AACAAAAC,0.0341 E-score
2,ATGATTCA,-0.206 E-score
3,GAAAGCGA,-0.103 E-score
4,AAAGATAA,-0.163 E-score
5,ACTAAATC,-0.0692 E-score
6,AGGTCGAG,-0.0929 E-score
7,CGTCTGTA,0.0759 E-score
8,CGTAGCAA,-0.18 E-score
9,GATTCCAC,0.0456 E-score
10,CACTGCCC,0.101 E-score
11,TATGCGAA,-0.0244 E-score
12,CCGACTCA,-0.0958 E-score
13,AAAATACC,-0.0354 E-score
14,GACTACTC,0.0198 E-score
15,GCGCTAAC,-0.0761 E-score
16,ACTCGTAT,0.0175 E-score
17,GTATGCTA,0.00895 E-score
18,CCGTTGAC,0.16 E-score
19,TCATACAA,-0.196 E-score
20,ATCTTCCC,0.0918 E-score
21,CGATGCAA,-0.131 E-score
22,CCGAATCA,-0.0877 E-score
23,GGGTCTGA,-0.0896 E-score
24,CCCCTCGC,0.169 E-score
25,CGGGCAAC,0.135 E-score

row,Sequence,binding signal
1,ACTCGTAA,0.0389 E-score
2,ATTTGACG,-0.0556 E-score
3,AGGCTTAC,-0.124 E-score
4,GCATATAA,0.0407 E-score
5,GAACTGCC,-0.325 E-score
6,CAAAGGAA,-0.0811 E-score
7,AGATTTTG,-0.163 E-score
8,CATATCCA,-0.0991 E-score
9,AGGAGCCA,-0.0678 E-score
10,TCAACAGA,-0.172 E-score
11,AATCTGGC,-0.207 E-score
12,CATGCCGC,-0.0895 E-score
13,ACAGCTAC,0.0797 E-score
14,CAACCTTA,-0.106 E-score
15,ATTGCCTA,-0.0975 E-score
16,TCGACCAA,-0.071 E-score
17,CGGAGCTC,-0.0203 E-score
18,GCCGTGGA,-0.197 E-score
19,AGGACTGA,-0.129 E-score
20,GATCGCCC,0.0409 E-score
21,AACTCGTC,-0.0755 E-score
22,AACTGGTG,0.364 E-score
23,GGATCGCA,0.0478 E-score
24,ATGTAGAA,-0.0541 E-score
25,CCAACAGA,-0.016 E-score

row,Sequence,binding signal
1,GATCGCGA,-0.106 E-score
2,AGTTTTAG,-0.0868 E-score
3,CATAAAAG,-0.00804 E-score
4,GCTATTAA,-0.045 E-score
5,AACACCAT,0.457 E-score
6,CGTGTCCA,0.4 E-score
7,CCTGTGGC,-0.01 E-score
8,CCTGTGAA,-0.0773 E-score
9,CTCACCTC,-0.104 E-score
10,TCATAACA,0.23 E-score
11,GAATCATC,-0.0859 E-score
12,ACTCATTC,-0.0983 E-score
13,ACGACCTC,0.193 E-score
14,GGTGGATA,0.156 E-score
15,ATTTGCGC,-0.163 E-score
16,GCTCTTCA,-0.147 E-score
17,CTAAAGAG,-0.0571 E-score
18,AGAAACGG,0.152 E-score
19,CAATGGCC,-0.256 E-score
20,GGAAAAGA,-0.287 E-score
21,GCGGTGTA,0.485 E-score
22,AGCAACAT,-0.173 E-score
23,CGCCCCTA,-0.0252 E-score
24,ATGATTGG,-0.181 E-score
25,CGGGCCAG,0.127 E-score

row,Sequence,binding signal
1,AACAAGCC,-0.214 E-score
2,CACGCAGA,0.137 E-score
3,CATTCCAG,-0.0941 E-score
4,CTGGGAAA,-0.0591 E-score
5,ACGCGATA,0.124 E-score
6,ATTGCTAC,-0.176 E-score
7,CCAATTAA,-0.0861 E-score
8,AGGGAGTG,0.163 E-score
9,CGCGCCGC,0.0029 E-score
10,AATGGTTA,-0.288 E-score
11,AAGGTACT,0.0685 E-score
12,GGACTTAC,-0.117 E-score
13,AGGGTCGA,0.0871 E-score
14,ACTGAAAG,-0.0913 E-score
15,ATTTGGTG,0.26 E-score
16,AGTGTACG,0.407 E-score
17,GCTCACCA,-0.174 E-score
18,CTCATCAA,-0.224 E-score
19,CGAGCTGC,-0.0893 E-score
20,AGATTGAG,-0.174 E-score
21,AATCAGAG,-0.0609 E-score
22,ACCGCAGT,0.0687 E-score

# — publication PMC10668032
